According to US6448281B1 (Boehringer Ingelheim (Canada) Ltd., priority 2000, dated 2002):

Biological target: hepatitis C virus RNA dependent polymerase (NS5B) (Hepacivirus hominis (Hepatitis C virus), UniProt P26663)
Assay: Inhibition of NS5B RNA dependent RNA polymerase activity (SPA, UMP-[5,6 3H] incorporation)
[1] = IC50 μM, first compound table (printed title TABLE 10; Table 1)

## COc1ccc(C(NC(=O)c2ccc3c(c2)nc(-c2ccc(OCC(=O)NCCCN(C)C)cc2)n3C2CCCCC2)C(=O)O)cc1OC (stereo not shown) [Entry 2026]
IC50 μM, Table 2
  IC50: 10 to 25 µM

## N#Cc1ccc(C[C@H](NC(=O)c2ccc3c(c2)nc(-c2ccoc2)n3C2CCCCC2)C(=O)O)cc1 [Entry 1024]
[1]
  IC50: 1 to 5 µM

## Cc1[nH]c2ccc(O)cc2c1C[C@H](NC(=O)c1ccc2c(c1)nc(-c1ccoc1)n2C1CCCCC1)C(=O)O [Entry 11020, (S)-2-{[1-(1-Cyclohexyl-2-furan-3-yl-1H-benzoimidazol-5-yl)-methanoyl]-amino]-3-(5-hydroxy-2-methyl-1H-indol-3-yl)-propionic Acid]
IC50, Table 11
  IC50: < 1 µM

## O=C(N[C@@H](Cc1c[nH]c2ccc(O)cc12)C(=O)O)c1ccc2c(c1)nc(-c1cccs1)n2C1CCCCC1 [Entry 12012]
IC50, Table 12
  IC50: < 1 µM

## O=C(O)c1cccc(CN2CCC(CNC(=O)c3ccc4c(c3)nc(-c3ccoc3)n4C3CCCCC3)CC2)c1 [Entry 1288]
[1]
  IC50: 1 to 5 µM

## O=C(C[C@H](O)C(=O)O)Nc1ccc(C[C@H](NC(=O)c2ccc3c(c2)nc(-c2ccoc2)n3C2CCCCC2)C(=O)O)cc1 [Entry 16044]
IC50, Table 16
  IC50: < 1 µM

## C[C@@H]1CCCC[C@H]1n1c(-c2ccoc2)nc2cc(C(=O)N[C@@H](Cc3c[nH]c4ccc(O)cc34)C(=O)O)ccc21 [Entry 22021]
IC50 μM, Table 22
  IC50: < 1 µM

## O=C(O)CCNC(=O)N1CCC(NC(=O)c2ccc3c(c2)nc(-c2ccoc2)n3C2CCCCC2)CC1 [Entry 1218]
[1]
  IC50: 10 to 25 µM

## O=C(O)c1cccc(NC(=O)N2CCC(CNC(=O)c3ccc4c(c3)nc(-c3ccoc3)n4C3CCCCC3)CC2)c1 [Entry 1204]
[1]
  IC50: 5 to 10 µM

## NC1CCCC(NC(=O)c2ccc3c(c2)nc(-c2ccoc2)n3C2CCCCC2)C1 (stereo not shown) [Entry 1182]
[1]
  IC50: 5 to 10 µM

## O=C(N[C@@H](Cc1c[nH]c2ccc(O)cc12)C(=O)O)c1ccc2c(c1)nc(-c1ccc(N3CCCC3)cc1)n2C1CCCCC1 [Entry 2101]
IC50 μM, Table 2
  IC50: 1 to 5 µM

## CC(CC(=O)Nc1cccc(C(=O)O)c1)NC(=O)c1ccc2c(c1)nc(-c1ccoc1)n2C1CCCCC1 (stereo not shown) [Entry 1179]
[1]
  IC50: 1 to 5 µM

## O=C(NC(Cc1c[nH]c2ccc(O)cc12)C(=O)O)c1ccc2c(c1)nc(C1CCCO1)n2C1CCCCC1 (stereo not shown) [Entry 2121]
IC50 μM, Table 2
  IC50: 1 to 5 µM

## NC(=O)[C@H](Cc1c[nH]c2ccc(N)cc12)NC(=O)c1ccc2c(c1)nc(-c1ccoc1)n2C1CCCCC1 [Entry 13005, 1-Cyclohexyl-2-furan-3-yl-1H-benzimidazole-5-carboxylic Acid [(S)-2-(5-Amino-1H-indol-3-yl)-1-carbamoyl-ethyl]-amide]
IC50, Table 13
  IC50: < 1 µM

## NC(=O)[C@H](Cc1ccc(O)cc1)NC(=O)c1ccc2c(c1)nc(-c1ccccn1)n2C1CCCCC1 [Entry 2135]
IC50 μM, Table 2
  IC50: 1 to 5 µM

## COC(=O)[C@H](Cc1ccc(-n2cc(C(=O)O)nn2)cc1)NC(=O)c1ccc2c(c1)nc(-c1ccoc1)n2C1CCCCC1 [Entry 16033]
IC50, Table 16
  IC50: < 1 µM

## O=C(O)Cn1cnc(C[C@H](NC(=O)c2ccc3c(c2)nc(-c2ccoc2)n3C2CCCCC2)C(=O)O)c1 [Entry 19001]
IC50, Table 19
  IC50: < 1 µM

## O=C(N[C@@H](Cc1c[nH]c2ccc(O)cc12)C(=O)O)c1ccc2c(c1)nc(-c1cccc3c1OCO3)n2C1CCCCC1 [Entry 12005]
IC50, Table 12
  IC50: < 1 µM

## NC(=O)[C@H](Cc1c[nH]c2ccc(O)cc12)NC(=O)c1ccc2c(c1)nc(-c1ccoc1)n2C1CCCCC1 [Entry 13001, 1-Cyclohexyl-2-furan-3-yl-1H-benzimidazole-5-carboxylic Acid [(S)-1-Carbamoyl-2-(5-hydroxy-1H-indol-3-yl)-ethyl]-amide]
IC50, Table 13
  IC50: < 1 µM

## CC(C)[C@H](NC(=O)c1ccc2c(c1)nc(-c1ccccn1)n2C1CCCCC1)C(=O)O [Entry 2006]
IC50 μM, Table 2
  IC50: 10 to 25 µM

## O=C(NC1CCCNC1)c1ccc2c(c1)nc(-c1ccoc1)n2C1CCCCC1 (stereo not shown) [Entry 1184]
[1]
  IC50: 5 to 10 µM

## C[C@@H](Cc1ccc(O)cc1)NC(=O)c1ccc2c(c1)nc(-c1ccoc1)n2C1CCCCC1 [Entry 1072]
[1]
  IC50: 1 to 5 µM
